In PubChem BioAssay AID485344 (National Center for Advancing Translational Sciences (NCATS), 2010):
Out of some 340,000 compounds screened, about 6,900 (2%) were called active. Cut-off read from the data, not from the text of the source: active = inhibition above about 30%; inactive = below that, where a call was filed. The list shows a part of the results, in another mix than the full data. Where no call is shown, the source filed none.

Molecular target: D(2) dopamine receptor (Homo sapiens) (UniProt P14416)
Sequence of UniProt P14416 (P14416 whole entry, looked up): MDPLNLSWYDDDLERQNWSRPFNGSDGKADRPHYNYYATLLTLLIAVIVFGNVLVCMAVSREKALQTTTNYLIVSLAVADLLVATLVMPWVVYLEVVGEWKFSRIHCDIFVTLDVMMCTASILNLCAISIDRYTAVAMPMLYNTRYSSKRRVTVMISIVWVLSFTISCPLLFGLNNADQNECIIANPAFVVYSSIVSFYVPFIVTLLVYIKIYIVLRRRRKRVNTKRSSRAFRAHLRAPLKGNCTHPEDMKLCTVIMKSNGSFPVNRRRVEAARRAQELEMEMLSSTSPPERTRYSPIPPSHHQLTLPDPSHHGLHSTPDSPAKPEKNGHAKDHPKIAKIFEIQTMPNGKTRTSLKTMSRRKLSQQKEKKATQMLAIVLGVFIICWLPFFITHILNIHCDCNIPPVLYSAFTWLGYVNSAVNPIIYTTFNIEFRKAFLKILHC
Experiment: HTS Assay for Allosteric Antagonists of the Human D2 Dopamine Receptor: Primary Screen for Antagonists; note: 0% is about no effect
Conditions: HEK293 TREx D2 cells, calcium flux, dopamine EC80; at 10 µM; stronger effect = higher value
Method in brief: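 Inhibition of EC80 dopamine-driven calcium flux, recorded kinetically, defines activity here; cells are a tetracycline-induced HEK293 T-REx line expressing force-coupled D2.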

Going from `Cc1ccc(CN(Cc2ccco2)C(=O)c2oc3ccc(C)cc3c2C)cc1` to `CC(=O)c1c(C)oc2ccc(N(C(=O)c3ccncc3)S(=O)(=O)c3ccc(C)cc3C)cc12`, the inhibition falls from 0.715% to -2.72%.

Going from `Cc1cccc(-n2ncc3c(N4CCCCCC4)ncnc32)c1` to `Cc1ccc(Cl)cc1-n1ncc2c(N3CCC(C)CC3)ncnc21`, the inhibition falls from 22.3% to -21%.

Compared with `CC(C)(C)C(=O)OC1=CN(Cc2ccccc2)S(=O)(=O)c2ccccc21`, `Cc1cc(C)cc(Nc2cc(C(=O)NCc3ccccc3)c3ccccc3n2)c1` is higher in inhibition: -8.68% for the first, -3.99% for the second.

Going from `CCOC(=O)c1ccc(-c2ccc(/C=C(\C#N)C(=O)Nc3ccc(C)cc3OC)o2)cc1` to `CCOC(=O)c1cccc(NC(=O)c2cc3cc4ccc(C)cc4nc3s2)c1`, the inhibition rises from -3.16% to 1.21%.

Going from `CCCNC(=O)CN1CCN(c2ncc(NC(=O)c3ccc(Cl)cc3)cc2C(=O)O)CC1` to `CC(C)OCc1cc(CN2CCN(c3ccccc3)CC2)c(O)c2ncccc12`, the inhibition rises from -6.79% to 0.475%.

First: CCCCN1C(=O)C(O)(c2c(C)[nH]c3ccccc23)c2ccccc21 (stereo unspecified)
Second: Cc1ccc(C)c(NC(=O)CCCN2C(=O)C(c3ccccc3)Oc3cccnc32)c1 (stereo unspecified)
The inhibition of the first is lower: -12.1% for the first, 6.54% for the second.

First: CCCOc1ccccc1C1Oc2nc(SC)nnc2-c2ccccc2N1C(C)=O (stereo unspecified)
Second: COc1ccccc1CNC(=O)C(CC(C)C)N1Cc2ccccc2C1=O (stereo unspecified)
The inhibition of the first is higher: 25% for the first, 9.04% for the second.

Going from `CS(=O)(=O)N1CCc2cc(C(=O)Nc3cccc(F)c3)ccc21` to `O=C(Nc1ccc(F)c(F)c1)C1CCCN1S(=O)(=O)c1cccc2nsnc12` (stereo unspecified), the inhibition falls from 20.5% to -17.3%.

First: Cc1ccc(C)c(Cn2c3ccccc3c3cnn(CC(=O)NC(C)c4ccccc4)c(=O)c32)c1 (stereo unspecified)
Second: Cc1cccc(NC(=O)Cn2c(=O)n(CCC(=O)N3CCc4ccccc4C3)c(=O)c3ccccc32)c1
The inhibition of the first is higher: 8.27% for the first, -8.05% for the second.

First: COc1ccccc1CC(=O)Nc1ccc2nc(N3CCC(C)CC3)cc(C)c2c1
Second: CC(C)Oc1ccc(CNC(=O)C2CCN(c3nc4ccccc4n(C)c3=O)CC2)cc1
The inhibition of the first is higher: -2.7% for the first, -19.4% for the second.

Compared with `COc1cccc2sc(N3CCN(C(=O)CCS(=O)(=O)c4ccc(F)cc4)CC3)nc12`, `Cc1cccc2c1-c1sc(C(=O)N3CCN(c4cccc(Cl)c4)CC3)cc1CO2` is lower in inhibition: 2.61% for the first, -1.67% for the second.

Going from `Cc1ccc(CNC(=O)C(=O)NCC(c2cccnc2)N2CCN(c3ccccc3F)CC2)cc1` (stereo unspecified) to `Cc1ccc(CNC(=O)CN2CCN(Cc3ccc(F)cc3)C2=O)cc1`, the inhibition rises from -1.28% to 17.5%.

Compared with `Cc1ccsc1CN(C(=O)c1oc2ccccc2c1C)C1CCS(=O)(=O)C1` (stereo unspecified), `Cc1ccc2c(c1)c1c(c(=O)n(-c3ccccc3C)c(=O)n1CC(=O)NCC1CCCO1)n2C` (stereo unspecified) is lower in inhibition: 1.68% for the first, -2.4% for the second.

First: CCCS(=O)(=O)N1CCC(n2c(C(F)(F)F)nc3cccnc32)CC1
Second: COc1ccccc1NC(=O)C1CCN(S(=O)(=O)c2cn(C)cn2)CC1
The inhibition of the first is higher: -1.21% for the first, -16.6% for the second.

First: Cc1ccc(NC(=O)Cn2nnc(C(=O)NCCc3ccccc3)c2N)cc1C
Second: Nc1c(C(=O)NCc2ccccc2)nnn1Cc1cccc(Br)c1
The inhibition of the first is lower: -6.47% for the first, 8.5% for the second.

Compared with `Cc1oc2ncn(C)c(=O)c2c1C(=O)NCCCN(Cc1ccccc1)C(C)C`, `Cc1cc(C)c(NC(=O)C(C)n2nnc3sc(-c4ccccc4)cc3c2=O)c(C)c1` (stereo unspecified) is higher in inhibition: -8.6% for the first, 18.1% for the second.

First: Cc1ccc(C(=O)Nc2nc(-c3ccccc3)ns2)cc1
Second: COc1cccc(NC(=O)c2ccc(-c3nc(COc4ccc(C)cc4)c(C)o3)cc2)c1
The inhibition of the first is higher: 19.5% for the first, -4.71% for the second.

Compared with `CCn1c(=O)c2sccc2n2c(CCC(=O)Nc3ccc(OC)c(Cl)c3)nnc12`, `COc1ccc(NC(=O)CCSc2nc(-c3ccco3)cc(C(F)(F)F)n2)cc1OC` is lower in inhibition: 15.1% for the first, -1.84% for the second.

First: CCc1ccc(C2NC(=O)c3[nH]nc(-c4cccc(OC)c4)c32)cc1 (stereo unspecified)
Second: CCOC(=O)c1ccc(N2C(=O)c3n[nH]c(-c4ccco4)c3C2c2ccc(F)cc2)cc1 (stereo unspecified)
The inhibition of the first is lower: 8.9% for the first, 12.9% for the second.

Going from `CCc1ccc(CNC(=O)CCn2c(=O)c3cccn3c3ccc(F)cc32)cc1` to `CCc1ccc(-n2c(CCC(=O)O)ccc2-c2ccc(F)cc2)cc1`, the inhibition falls from 14.9% to 8.6%.

Compared with `CCOc1ccccc1CNC(=O)c1cc(-c2ccc(C)c(C)c2)nc2ccccc12`, `COc1ccccc1NC(=O)C1=C(C)Nc2nc(SCc3ccccc3Cl)nn2C1c1ccncc1` (stereo unspecified) is lower in inhibition: 18.3% for the first, 2.43% for the second.

Compared with `CCOc1ccccc1NC(=O)COc1ccc(S(=O)(=O)NC2CCCCC2)cc1`, `O=C(c1cn(CCOc2ccc(Cl)cc2)c2ccccc12)C1CCCCC1` is lower in inhibition: 7.93% for the first, 6.09% for the second.

First: COc1ccc(S(=O)(=O)N(CC(=O)Nc2cccnc2)c2ccc(C)cc2)cc1OC
Second: CCN(CC)S(=O)(=O)c1ccc(C(=O)NCCSc2c(-c3ccc(OC)cc3)[nH]c3ccccc23)cc1
The inhibition of the first is higher: 5.76% for the first, 3.02% for the second.

Going from `COc1cc2c(=O)n(CCC(=O)NCC3CCCO3)c(=O)n(CC(=O)Nc3ccc(F)cc3)c2cc1OC` (stereo unspecified) to `CNC(=O)C1CCC(Cn2c(=O)c3sccc3n(CC(=O)Nc3cc(F)ccc3F)c2=O)CC1` (stereo unspecified), the inhibition rises from 7.25% to 11.1%.

Compared with `Cc1ccc(O)c(NC(=O)CCS(=O)(=O)c2nc(-c3ccc4c(c3)OCO4)cc(C(F)(F)F)n2)c1`, `Cc1ccc(C)c(C(=O)COC(=O)CCCC(=O)Nc2cc(C(F)(F)F)ccc2Cl)c1` is higher in inhibition: 3.9% for the first, 25.7% for the second.

Compared with `Nc1c(C(=O)Nc2ccc(Br)cc2)sc2nc(-c3ccncc3)ccc12`, `O=C(Nc1ccc2oc(-c3cccc(Cl)c3Cl)nc2c1)c1cccc(Br)c1` is lower in inhibition: 14.8% for the first, 7.28% for the second.

First: CC(=O)Nc1ccc(C(=O)CSc2nnc3ccc4ccccc4n23)cc1
Second: CCOc1ccc(NC(=O)CN2C(C(=O)OC)=C(c3ccccc3)c3cc(Cl)ccc3S2(=O)=O)cc1
The inhibition of the first is lower: -4.25% for the first, 11.1% for the second.

First: CCOC(=O)c1cc2c(=O)n3ccccc3nc2n(C)c1=NC(=O)c1cc2ccccc2o1
Second: CCc1ccc(OCCSc2nc(-c3cccc(C)c3)nc3cc(=O)[nH]n23)cc1
The inhibition of the first is lower: -7.06% for the first, -5.04% for the second.

Compared with `O=S(=O)(NCc1ccc(Cl)cc1)c1ccc(N2CCCCS2(=O)=O)cc1`, `O=C(NCc1ccccc1)C1CCN(S(=O)(=O)c2ccc3[nH]c(=O)ccc3c2)CC1` is higher in inhibition: -28% for the first, 13% for the second.

Compared with `CSc1ccc(CCNC(=O)c2cc3c(-c4ccccc4F)nn(C)c3s2)cc1`, `O=C(CSc1nccn1Cc1ccc(Cl)cc1)NCc1ccccc1` is lower in inhibition: 7.92% for the first, -2.17% for the second.

Going from `CCOC(=O)c1cc(-c2ccc(F)cc2)n(CCC(=O)NC2CCCCC2)c1C` to `CCOc1ccc(CCNC(=O)c2cnc3sc(N4CCCCCC4)nn3c2=O)cc1`, the inhibition rises from 1.2% to 3.78%.

Compared with `Cc1cc(C)cc(Nc2nc3c(S(=O)(=O)c4cccc(Cl)c4)nnn3c3ccsc23)c1`, `Cc1cc2nc(-c3cccc(NC(=O)COc4ccc(Cl)c(C)c4)c3)oc2cc1C` is higher in inhibition: 8.55% for the first, 14.4% for the second.

Going from `O=C(Nc1ccccc1C(F)(F)F)c1cc2ccccn2n1` to `Cc1cccc(CC(=O)NCCc2csc(-c3ccc(C(F)(F)F)cc3)n2)c1`, the inhibition rises from -2.3% to 19.2%.

First: CCOc1cc(CNCCSc2nnnn2-c2ccccc2)ccc1OC
Second: COc1ccc(-c2cc(C(F)(F)F)nc(SCC(=O)NCc3ccc(Cl)cc3)n2)cc1
The inhibition of the first is lower: -26.6% for the first, 4.53% for the second.

Going from `CCOC(=O)C1CCN(C(c2ccc(F)cc2)c2sc3nc(-c4ccco4)nn3c2O)CC1` (stereo unspecified) to `COc1ccc(NC(=O)c2c(NCc3cccc(F)c3)sc3c2CCCC3)c(OC)c1`, the inhibition rises from -16.6% to -7.37%.

Compared with `CCOc1ccc(C(=O)c2cn(CC(=O)Nc3cc(OC)ccc3OC)c3cc(OC)c(OC)cc3c2=O)cc1`, `COc1ccc(OC)c(NC(=O)CN2CCCN(Cc3cc(C)ccc3C)S2(=O)=O)c1` is higher in inhibition: -12% for the first, 2.35% for the second.

Compared with `O=C(CN1C(=O)C2(SCC(=O)N2c2ccc(F)cc2)c2ccccc21)NCCc1ccccc1` (stereo unspecified), `O=C(CN1C(=O)C2(SCC(=O)N2c2ccc(F)c(F)c2)c2ccccc21)Nc1ccccc1F` (stereo unspecified) is higher in inhibition: 1.08% for the first, 9.11% for the second.

First: COc1ccc(NCc2nnc3n2CCCCC3)c(OC)c1
Second: COc1cn(CC(=O)Nc2cc(C)ccc2C)c(CN2CCCCC2)cc1=O
The inhibition of the first is lower: 2.55% for the first, 4.51% for the second.

First: CC(=O)Nc1cccc(NC(=O)CSc2cn(CC(=O)N3CCCCCC3)c3ccccc23)c1
Second: Cc1cccc(N(C)S(=O)(=O)c2c(C(=O)N3CCCCCC3)c(C)n(C)c2C)c1
The inhibition of the first is lower: -13.5% for the first, 19.6% for the second.

Going from `O=[N+]([O-])c1cc(-c2nc(-c3ccncc3)no2)ccc1NCc1ccccc1` to `CC1=C(C(=O)Nc2ccc(F)cc2F)C2(CCCCCC2)OC1=O`, the inhibition rises from -14% to -5.59%.

In the case of `COc1ccc(NC(=O)CCN2CCN(c3ccccc3F)CC2)c(OC)c1`, the inhibition is reported as active: 85.7%.
`Cc1sc2ncnc(SCC(=O)NC3CCCC3)c2c1C` was tested, and the inhibition was active: 31.8%.
In the case of `O=C(c1ccc(F)cc1)C1CCN(Cc2cn[nH]c2-c2ccc(F)cc2)CC1`, the inhibition is reported as active: 93.9%.
In the case of `CCOc1ccc(NC(=O)NCCN2CCN(c3ccccc3F)CC2)cc1`, the inhibition is reported as active: 78.8%.
In the case of `CCn1c(CN2CCCCC2)nc2cc(S(=O)(=O)N3CCCCC3)ccc21`, the inhibition is reported as active: 54.7%.
With `CN(C)C(=O)c1c(NC(=O)c2ccco2)sc2c1CCCCC2` the inhibition was active: 34.9%.
With `COc1cccc(CN2CCN(c3ncccn3)CC2)c1OC` the inhibition was active: 60.3%.
`COc1ccc(C)cc1NC(=O)NCc1ccc(F)cc1` was tested, and the inhibition was active: 52.8%.
For `O=C(Nc1ccc(Cl)c(C(F)(F)F)c1)N1CCCC(O)C1` (stereo unspecified), the inhibition was active: 30.4%.
`COc1ccc(-c2cc3ccccc3n2CC(O)CN2CCCCC2)cc1` (stereo unspecified) was tested, and the inhibition was active: 42.9%.
With `Nc1nc(NC(=O)/C=C\C(=O)O)nn1-c1ccccc1` the inhibition was active: 35.5%.
With `CCOC(=O)Nc1ccc2c(c1)nc(CN1CCCCC1)n2C` the inhibition was active: 30.8%.
With `CN(CC(=O)Nc1ccc(OC(F)(F)F)cc1)C(=O)/C=C/c1cc2c(cc1[N+](=O)[O-])OCO2` the inhibition was active: 79.9%.
With `CCc1nnc(NC(=O)C(C)N2C(=O)C3C4C=CC(C4)C3C2=O)s1` (stereo unspecified) the inhibition was active: 32.8%.
For `COc1cc(OC)c(CNC2CCCCCC2)cc1Br`, the inhibition was active: 48.7%.
With `Cc1ccc(N(C(=O)c2snc(C(N)=O)c2N)C(C(=O)NC2CCCC2)c2ccncc2)cc1` (stereo unspecified) the inhibition was active: 105%.
